From article PMC6212790 come the findings set out here.

The list shows a part of the results. At the low end of the ranking the order means little.

The target in the experiment is T1, GST-Rok-C97-191 (UniProt O34857).
T1 sequence: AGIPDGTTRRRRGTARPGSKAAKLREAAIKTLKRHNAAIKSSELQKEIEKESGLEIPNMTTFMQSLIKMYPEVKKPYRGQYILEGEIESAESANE
The experiment is described as follows: protein binding microarray.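 Further: rank score from −0.5 (least bound) to 0.5 (best bound).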 The following applies: Rok is a gene silencer of Bacillus subtilis; high values mean tight binding; most listed sequences are background and not binding sites; double strand, one strand shown.
Sequence AAAGAGTT yielded a binding signal of 0.123 E-score. In the case of ACAGCCCA it was -0.071 E-score; in that of ATCAGTCA, -0.174 E-score. The value for CGCTGCAA was -0.0879 E-score. The sequence AATATTGC had a binding signal of 0.15 E-score.

With CATTGCAC, the binding signal was determined as 0.0344 E-score. For the sequence GTGCATAA, the binding signal amounted to 0.174 E-score. In the case of AATTGAAG it was 0.229 E-score; in that of GCCCCGAC, -0.335 E-score; in that of CCTAACGC, -0.153 E-score.

The sequence AAACCAAG gave a binding signal of 0.00645 E-score. The value for CAGACCCC was -0.358 E-score; that for GGGGTGCA was -0.159 E-score; that for CAAAAAGA was -0.0455 E-score. Turning to GAAAATGA, the binding signal was -0.0787 E-score. CGGCCGCA showed a binding signal of -0.286 E-score. TAAAGGAA returned a binding signal of -0.166 E-score. The value for CTACGGGC was -0.093 E-score; that for CTTTGAAA was -0.0417 E-score. In the case of AACCATTG it was -0.0933 E-score.

Consider AGGTAGCG, for which the binding signal came to 0.125 E-score. The sequence CAGTGCAG gave a binding signal of -0.233 E-score.

As for GTAACGTA, the binding signal was 0.0867 E-score.

CATCTTGA showed a binding signal of -0.126 E-score. Consider ACCGCTCC, for which the binding signal is -0.0739 E-score. As for CGGAACTC, the binding signal is -0.0422 E-score. In the case of CTAGGTTA it was -0.0294 E-score; in that of GGCAGCAC, -0.311 E-score; in that of CCGATACA, 0.175 E-score. In the case of GGAATAAA it was 0.138 E-score; in that of AATTCAAT, 0.22 E-score.

For the sequence CAAGATGA, the binding signal was -0.0963 E-score. Consider ATCCGATA, for which the binding signal was found to be 0.203 E-score. In the case of AATTGAGA it was -0.0343 E-score.

Regarding ACACCAAA, the binding signal came to 0.162 E-score. With CCTACGGC, the binding signal was -0.0892 E-score. The value for ATGAATGA was 0.158 E-score; that for CAACAGGA was -0.0379 E-score; that for GCAGCGGA was -0.0833 E-score.

In turn, ACCTGCGA showed a binding signal of 0.0411 E-score. On to GACGGGAA, for which the binding signal is -0.161 E-score. The value for CCTTACCA was -0.0792 E-score. With CCCTGTTA, the binding signal was -0.000838 E-score. The value for GAGCGTCA was -0.205 E-score; that for TATTAGGA was 0.111 E-score. Regarding AACCCGCT, the binding signal is -0.245 E-score. The value for AACTTCTG was 0.193 E-score. In the case of ATCACGGC it was 0.0235 E-score. In the case of CTCGGCGC it was -0.202 E-score; in that of AGGCAGAC, -0.358 E-score. AGCAAATG displayed a binding signal of 0.195 E-score. The value for CGTGGTGC was -0.37 E-score; that for CATCGCCC was -0.274 E-score; that for CGACGCAG was -0.121 E-score.

For GACCCGCC, the binding signal is -0.243 E-score. The value for CGCACGCC was -0.18 E-score.

ATTCCGTG had a binding signal of 0.17 E-score.

On to ATTAAGTA, for which the binding signal amounted to 0.291 E-score.

ATATTGAC registered a binding signal of 0.118 E-score. In the case of AAACGCTA it was 0.181 E-score.

With ACCAGAGG, the binding signal was -0.185 E-score. In the case of GCCCAATA it was 0.0681 E-score; in that of AATACCCG, 0.177 E-score.

CTGAAATA yielded a binding signal of -0.0818 E-score.

GTATTTTA: the binding signal came out at 0.376 E-score. In the case of CGTGAATA it was 0.017 E-score.

Sequence ACTTACAT came in with a binding signal of 0.245 E-score. The value for ACCTGTCA was -0.103 E-score; that for AAGGTCTC was -0.133 E-score.

On to TCGCTCAA, for which the binding signal is 0.0269 E-score. The value for AGTGGTGG was -0.12 E-score; that for AGGTCTAA was 0.0411 E-score; that for TCCTAACA was -0.107 E-score.

TCGAGAGA displayed a binding signal of 0.0288 E-score. In turn, CTGGTACC registered a binding signal of 0.0702 E-score.

Turning to GGACTCAA, the binding signal was -0.00733 E-score.

CATTGACG came in with a binding signal of 0.0907 E-score. Take ATCCCTCC: the binding signal was -0.221 E-score. The value for AATTCGAC was -0.0523 E-score. In the case of GCTTATCA it was -0.154 E-score; in that of GAGAACCC, -0.104 E-score. The value for CAGGTGAA was -0.11 E-score; that for AGACCTCG was -0.0859 E-score. CAACCGGG had a binding signal of -0.294 E-score.

In the case of CGGTAGCA, the binding signal turned out to be 0.166 E-score. The value for ATGGACTG was -0.124 E-score; that for GCTGATCC was -0.0276 E-score. The value for AGAGACAT was 0.0204 E-score.

CCGACAAC gave a binding signal of -0.076 E-score. In the case of CAACCCTG it was -0.104 E-score; in that of CAAAAACG, -0.131 E-score. In the case of ACGAGATG it was -0.185 E-score; in that of ATGTATGG, 0.252 E-score; in that of GGTAAACA, -0.0472 E-score.
